In all, about 81,000 sequences were measured (“one-hybrid fitness for binding NBS DNA”: median about -0.1, highest 2% from about 0.36 on). This is one part of the list. Where only a bound is given, the exact number is not on record here.

First the molecules themselves.
B1: Caulobacter ParB omega fusion; a variant is named by its letters at X, in order, B8GW30 (parent)
chain: MESVVVGEPGMSEGRRGLGRGLSALLGEVDAAPAQAPGEQLGGSREAPIEILQRNPDQPRRTFREEDLEDLSNSIREKGVLQPILVRPSPDTAGEYQIVAGERAWRAAQRAGLKTVPIMVRELDDLAVLEIGIIENVQRADLNVLEEALSYKVLMEKFERTQENIAQTIGKSXSHVANXMRLLXLPDEVQSYLVSGELTAXHARAIAAAADPVALAKQIIEGGLSVRETEALARKAPNLSAGKSKGGRPPRVKDTDTQALESDLSSVLGLDVSIDHRGSTGTLTITYATLEQLDDLCNRLTRGI

In this experiment the parent is B1. In words: one-hybrid fitness for binding NBS DNA (the Noc-binding site; scaled: cognate 1, non-cognate 0); higher = stronger binding. The note with it: with NBS DNA site. The method in brief: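 Pre- and post-selection plasmids were Illumina-sequenced, three replicate libraries were pooled, and any variant with under 10 reads was removed. The libraries were Caulobacter ParB with four specificity codons randomised, selected in E. coli USO through a HIS3 reporter whose site is 19 bp from the promoter. Cells grew 48 hours at 37°C on M9 without histidine, with 0.1 mM IPTG and 5 mM 3-AT. Fitness is the log change in variant-to-wild-type read ratio, rescaled against cognate and non-cognate.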
For the variant GLAV, the “one-hybrid fitness for binding NBS DNA” value is at most 0.2.
As to CRQR, the “one-hybrid fitness for binding NBS DNA” value was at most 0.2.
The same measure for YQAL: at most 0.2.
The same measure for PMRY: at most 0.2.
The same measure for HMCA: at most 0.2.
As for SRCN, the “one-hybrid fitness for binding NBS DNA” value is at most 0.2.
The same measure for PTNS: at most 0.2; for MTLL: at most 0.2; for DICV: at most 0.2.
As for NCIC, the figure is at most 0.2.
The same measure for TCPF: at most 0.2.
Regarding TTVV, the “one-hybrid fitness for binding NBS DNA” value was at most 0.2.
Take SLLW: the “one-hybrid fitness for binding NBS DNA” value was at most 0.2.
The same measure for ILAV: at most 0.2; for VFVC: at most 0.2.
Regarding RASD, the “one-hybrid fitness for binding NBS DNA” value is at most 0.2.
The same measure for STNT: at most 0.2.
The same measure for HIPD: at most 0.2; for LIQR: at most 0.2.
As for NILC, the figure is at most 0.2.
Consider LDHW, for which the “one-hybrid fitness for binding NBS DNA” value is at most 0.2.
As for AMRC, the figure is at most 0.2; as for RNKH, 0.237.
The same measure for CERS: at most 0.2.
As to EMKC, the “one-hybrid fitness for binding NBS DNA” value is at most 0.2.
Regarding RCFD, the “one-hybrid fitness for binding NBS DNA” value is at most 0.2.
As to LENE, the “one-hybrid fitness for binding NBS DNA” value is at most 0.2.
As for RDRF, the figure is at most 0.2; as for DGAR, at most 0.2.
As for RCAS, the figure is 0.476; as for AVRR, at most 0.2; as for KGER, at most 0.2.
The same measure for SRLD: at most 0.2; for NWHS: at most 0.2.
Regarding WTGE, the “one-hybrid fitness for binding NBS DNA” value was at most 0.2.
Turning to KDPP, the “one-hybrid fitness for binding NBS DNA” value is at most 0.2.
The same measure for DIEW: at most 0.2.
The same measure for GHNR: at most 0.2; for PIVW: at most 0.2.
Take GHEF: the “one-hybrid fitness for binding NBS DNA” value is at most 0.2.
QIMG: the “one-hybrid fitness for binding NBS DNA” value was at most 0.2.
On to PCTV, for which the “one-hybrid fitness for binding NBS DNA” value is at most 0.2.
As for TYRD, the figure is at most 0.2; as for SLYC, at most 0.2; as for RKYM, at most 0.2.
The same measure for LGIT: at most 0.2.
Turning to IYPV, the “one-hybrid fitness for binding NBS DNA” value came out at 0.41.
The same measure for FCYS: at most 0.2; for TSEY: at most 0.2.
The same measure for NNLR: at most 0.2; for AFDV: at most 0.2.
With YHLN, the “one-hybrid fitness for binding NBS DNA” value was at most 0.2.
As for DMQP, the figure is at most 0.2; as for FSWL, at most 0.2.
The same measure for WRMN: at most 0.2; for LEWS: at most 0.2.
As to KLKI, the “one-hybrid fitness for binding NBS DNA” value is at most 0.2.
As to RAWD, the “one-hybrid fitness for binding NBS DNA” value is at most 0.2.
The same measure for RGWW: at most 0.2.
The same measure for CQPI: at most 0.2; for WCQS: at most 0.2.
The same measure for QWGI: at most 0.2; for ATNR: at most 0.2; for QPTP: at most 0.2.
Regarding VCRN, the “one-hybrid fitness for binding NBS DNA” value is at most 0.2.
Consider HNHG, for which the “one-hybrid fitness for binding NBS DNA” value was at most 0.2.
As for VSFG, the figure is at most 0.2.
For TAAA, the “one-hybrid fitness for binding NBS DNA” value is at most 0.2.
As for IIYR, the figure is at most 0.2; as for PWPG, at most 0.2; as for WFTL, at most 0.2.
The same measure for RNNM: at most 0.2; for VAAQ: at most 0.2.
The same measure for QPPR: at most 0.2.
Turning to FNKG, the “one-hybrid fitness for binding NBS DNA” value is at most 0.2.
Regarding YARY, the “one-hybrid fitness for binding NBS DNA” value is at most 0.2.
Take TEKM: the “one-hybrid fitness for binding NBS DNA” value is at most 0.2.
Regarding VELF, the “one-hybrid fitness for binding NBS DNA” value was at most 0.2.
The same measure for VKMG: at most 0.2.
As for NHVD, the figure is at most 0.2; as for DLLR, at most 0.2.
As for KWDD, the figure is at most 0.2; as for VGGS, at most 0.2.
On to LLLC, for which the “one-hybrid fitness for binding NBS DNA” value was at most 0.2.
As for MQKG, the figure is at most 0.2; as for QFES, at most 0.2; as for NMYC, at most 0.2.
With GINW, the “one-hybrid fitness for binding NBS DNA” value is at most 0.2.
The same measure for DYTF: at most 0.2; for DYQG: at most 0.2.
The same measure for MLFS: at most 0.2; for WKCG: at most 0.2; for LKYE: at most 0.2.
As for VSGT, the “one-hybrid fitness for binding NBS DNA” value is at most 0.2.
For the variant DAKR, the “one-hybrid fitness for binding NBS DNA” value is at most 0.2.
For the variant AHGR, the “one-hybrid fitness for binding NBS DNA” value was at most 0.2.
As to DTVV, the “one-hybrid fitness for binding NBS DNA” value was at most 0.2.
Consider RPIW, for which the “one-hybrid fitness for binding NBS DNA” value is at most 0.2.
The same measure for DLKY: at most 0.2; for EPKW: at most 0.2.
As for HFSY, the figure is at most 0.2.
Regarding IKCG, the “one-hybrid fitness for binding NBS DNA” value is at most 0.2.
For the variant DSGV, the “one-hybrid fitness for binding NBS DNA” value is at most 0.2.
The same measure for CAAC: at most 0.2.
Regarding TATG, the “one-hybrid fitness for binding NBS DNA” value was at most 0.2.
The same measure for PRKI: at most 0.2; for KLCM: at most 0.2.
Turning to RIDD, the “one-hybrid fitness for binding NBS DNA” value is at most 0.2.
As for TTSY, the figure is at most 0.2.
The same measure for HELS: at most 0.2; for RCIM: at most 0.2.
The same measure for FFLS: at most 0.2; for ALTT: at most 0.2.
As for LGSV, the “one-hybrid fitness for binding NBS DNA” value is at most 0.2.
For the variant GLDA, the “one-hybrid fitness for binding NBS DNA” value was at most 0.2.
As for VERV, the figure is at most 0.2; as for YKSS, at most 0.2.
As for LMTC, the figure is at most 0.2.
As for EYWR, the “one-hybrid fitness for binding NBS DNA” value was at most 0.2.
Consider PCHC, for which the “one-hybrid fitness for binding NBS DNA” value was at most 0.2.
On to GGGL, for which the “one-hybrid fitness for binding NBS DNA” value is at most 0.2.
For DYIK, the “one-hybrid fitness for binding NBS DNA” value is at most 0.2.
In the case of LNGC, the “one-hybrid fitness for binding NBS DNA” value was at most 0.2.
As for TRTI, the figure is at most 0.2; as for SMNN, at most 0.2.
As to LTTQ, the “one-hybrid fitness for binding NBS DNA” value was at most 0.2.
The same measure for APVH: at most 0.2; for QLYT: 0.355.
As for RNSY, the figure is at most 0.2; as for KGDM, at most 0.2; as for TRDA, at most 0.2.
As for RVKQ, the figure is 0.232; as for VENS, at most 0.2; as for HNPW, at most 0.2.
As for PNRL, the “one-hybrid fitness for binding NBS DNA” value was at most 0.2.
As for KTWS, the “one-hybrid fitness for binding NBS DNA” value is at most 0.2.
As for HGPC, the figure is at most 0.2; as for AYMF, at most 0.2.
As for QHGD, the figure is at most 0.2; as for HQSF, at most 0.2.
In the case of CSCT, the “one-hybrid fitness for binding NBS DNA” value was at most 0.2.
The same measure for AFSH: at most 0.2; for DTKY: at most 0.2; for PLMF: at most 0.2.
As for PPDY, the figure is at most 0.2; as for MIPT, at most 0.2; as for QRFT, 0.723.
With VLPM, the “one-hybrid fitness for binding NBS DNA” value was at most 0.2.
As for VSLG, the figure is at most 0.2; as for QDAA, at most 0.2; as for QQEI, at most 0.2.
The same measure for NEHC: at most 0.2.
As for PSCM, the “one-hybrid fitness for binding NBS DNA” value was at most 0.2.

The record behind these values is a collection of fitness landscapes (doi:10.1016/j.celrep.2020.107928).
